Data from PubChem BioAssay AID1768 (National Center for Advancing Translational Sciences (NCATS), 2009).
The whole screen tested about 270,000 compounds, of which about 620 (0.23%) were called active. This list was built around the results that the source calls inconclusive (neither active nor inactive); the mix of calls is not that of the screen. Calls follow the shape of the dose curve; as a rule, active = well fitted inhibition curve with a large enough effect in the polarisation, with a control signal flat (not every such curve was filed as active); inconclusive = small, poorly fitted or top-dose-only effect, or effect the other way, or a change in a side signal; inactive = no such curve, though single readings can be large or run the other way; the % refers to the polarisation. Potencies beside an inconclusive call are fits to weak or partial responses and may not hold up. A note “side channel” means that the fit belongs to a control or component signal, not to the main read-out.

Target: Menin (Homo sapiens) (UniProt O00255)
Test: qHTS Assay for Inhibitors Targeting the Menin-MLL Interaction in MLL Related Leukemias: Competition With Texas Red Labeled MLL-derived Mutant Peptide
Conditions: fluorescence polarization; series mostly up to 61.6 µM
Potency is read from the fitted curve at half-maximal effect; tags tell the direction and shape of the fitted curve or compound fluorescence and quenching.

Chain of UniProt O00255 (O00255 whole entry, looked up): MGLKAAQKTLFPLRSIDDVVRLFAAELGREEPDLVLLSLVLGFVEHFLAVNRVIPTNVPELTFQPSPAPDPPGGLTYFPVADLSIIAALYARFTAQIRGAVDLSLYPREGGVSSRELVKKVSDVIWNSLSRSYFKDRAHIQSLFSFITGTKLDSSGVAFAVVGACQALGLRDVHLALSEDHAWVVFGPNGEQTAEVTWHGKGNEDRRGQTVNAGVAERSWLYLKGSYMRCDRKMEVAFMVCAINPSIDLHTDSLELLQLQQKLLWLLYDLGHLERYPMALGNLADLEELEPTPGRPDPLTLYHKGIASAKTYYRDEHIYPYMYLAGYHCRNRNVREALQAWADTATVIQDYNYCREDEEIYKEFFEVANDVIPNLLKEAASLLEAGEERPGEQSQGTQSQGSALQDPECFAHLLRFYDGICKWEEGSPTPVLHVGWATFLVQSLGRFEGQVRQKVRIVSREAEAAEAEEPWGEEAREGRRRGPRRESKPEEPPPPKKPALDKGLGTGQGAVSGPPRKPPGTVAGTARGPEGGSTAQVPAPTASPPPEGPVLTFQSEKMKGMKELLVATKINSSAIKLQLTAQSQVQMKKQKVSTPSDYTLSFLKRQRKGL

Potency, inactive:
CN1CCc2cc(NC(=O)Nc3cccnc3)ccc21
CN(C)c1nc(-c2ccccc2)cc(C(F)(F)F)c1C#N
CSCC[C@H](NC(=O)[C@H](CC(C)C)N1CCC(NC(=O)[C@@H](NC(=O)[C@H](Cc2ccccc2)NC(=O)[C@H](CO)NC(=O)[C@H](CC(=O)O)NC(=O)[C@@H](N)CCCCN)C(C)C)C1=O)C(N)=O (some centres not stated)
Cc1ccc(-c2cc(C(=O)O)c3sc(N4CCCCC4)nc3n2)cc1
Cc1ccc(C(=O)N/C(=C\c2ccc(Cl)cc2)C(=O)NCCN2CCOCC2)cc1
O=C(CN1CCN(Cc2ccc(F)cc2)CC1)NCCc1ccccc1
Cc1occc1-c1nnc(SCC(=O)c2ccc(Cl)cc2)n1C

Potency, inconclusive:
NC(=O)NC(=O)COC(=O)c1ccc2noc(-c3ccccc3)c2c1 39.8 µM [inhibitor, single point]
Cc1c(Cl)cccc1NC(=O)Cn1c(-c2ccc(F)cc2)noc1=O 35.5 µM [inhibitor, single point]
COc1cc(NC(=O)c2cccs2)c(OC)cc1NC(=O)Nc1ccc(F)cc1 12.6 µM [quencher, side channel, partial curve]
COc1cc(Br)cc(/C=N/NC(=O)Cc2ccc(C(F)(F)F)cc2[N+](=O)[O-])c1O 11.2 µM [quencher, side channel, partial curve]
Cc1ccc(S(=O)(=O)C(C#N)c2nc3ccccc3nc2N2CC(C)OC(C)C2)cc1C (configuration not stated) 25.1 µM [quencher, side channel, partial curve]
Cc1cccc(C(=O)Nc2sc3c(c2C(=O)O)CCCC3)c1 14.1 µM [quencher, side channel, partial curve]
O=C(N/N=C/c1cn(-c2cccs2)nc1-c1ccccc1)c1ccccc1Cl 31.6 µM [inhibitor, single point]
Cc1ccccc1NC(=S)NCCSc1ccc(Cl)cc1 39.8 µM [quencher, side channel, single point]
O=C(CN1CCCC1)Nc1ccc(Oc2ccc(NC(=O)CN3CCCC3)cc2)cc1 8.91 µM [inhibitor, full curve, poor fit]
COc1cc(C(=O)Nc2scc(-c3ccc(Br)cc3)c2C(=O)O)cc(OC)c1OC 15.8 µM [quencher, side channel, partial curve]
CCCC(=O)Nc1ccc2c(c1)nc(CN1CCN(C(=O)OCC)CC1)n2C 31.6 µM [inhibitor, partial curve]
Cc1cc(Br)ccc1OCCNCc1ccccc1 15.8 µM [fluorescent, side channel, partial curve]
CCOC(=O)C1NN=C(C(=O)c2ccccc2)C1c1ccc(Cl)cc1 (configuration not stated) 20 µM [fluorescent, side channel, single point]
CC12CCC(=O)N1c1c(sc3nc(N4CCOCC4)c4c(c13)CCCC4)C(=O)N2 (configuration not stated) 8.91 µM [inhibitor, partial curve, poor fit]
O=[N+]([O-])c1ccc(NC(=S)NCCc2ccc(F)cc2)cc1 11.2 µM [quencher, side channel, partial curve]
COc1cc(Br)cc(/C=C/c2ccc3cccc(O)c3n2)c1O 8.91 µM [quencher, side channel, full curve]
Cc1cc(-n2c(SCc3ccccc3F)nc3n[nH]c(C)c3c2=N)ccc1Cl 22.4 µM [inhibitor, partial curve]
[O-]/C(=C(\C(=S)Nc1ccc(SC(F)F)cc1)[n+]1cccc(CO)c1)c1ccc(Cl)s1 12.6 µM [quencher, side channel, partial curve]
Cc1cc(C(=O)OCC(=O)c2ccc(Br)s2)no1 17.8 µM [quencher, partial curve]
CCCCN1C(=O)/C(=C/C=C2\N(C)c3ccccc3C2(C)C)SC1=S 22.4 µM [fluorescent, side channel, partial curve]
CC(=O)Nc1ccc(C2=NN(C)C(=NCc3ccccc3)SC2)cc1 14.1 µM [quencher, side channel, partial curve]
Cc1ccc(NC(=O)CSc2nncc3ccccc23)cc1 31.6 µM [inhibitor, single point]
COc1cccc(NC(=O)c2oc3ccc(S(=O)(=O)N4CCOCC4)cc3c2C)c1 25.1 µM [quencher, side channel, single point]
Clc1ccc(COc2cccc(CNCc3ccncc3)c2)cc1 28.2 µM [fluorescent, side channel, single point]
CN1CCN(c2cc(N3CCN(C(=O)c4ccco4)CC3)c3c4c(onc24)-c2ccccc2C3=O)CC1 8.91 µM [fluorescent, side channel, full curve]
COc1ccc(C)cc1S(=O)(=O)N1CCCC(C(=O)N2CCN(c3ccccc3F)CC2)C1 (configuration not stated) 12.6 µM [fluorescent, side channel, partial curve]
CCn1ccnc1CN(C)Cc1cn(-c2cc(C)ccc2C)nc1-c1ccccc1 3.16 µM [fluorescent, side channel, full curve]
O=C(COc1ccccc1)NNC(=S)NC(=O)c1ccc(Cl)cc1Cl 22.4 µM [quencher, side channel, single point]
CC(=O)Nc1ccc(S(=O)(=O)NCc2ccc3c(c2)cc(C)n3C)cc1 31.6 µM [fluorescent, partial curve]
CSc1nsc(SCC(=O)Nc2ccc(O)c(C(=O)O)c2)n1 14.1 µM [quencher, side channel, partial curve]
